Test results published in the supplement of paper PMC10126150.
Values marked as one replicate rest on one cluster of the flow cell; about a third of the high ones do not repeat.
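Further: ATP exposure 15 min at 22 °C before imaging.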

What follows are sequences tested on ATP (assay: switch fluorescence ratio, 500 uM ATP over buffer (Cy3 cluster intensity, sum of 5 cycles each) (fold (ratio)); higher = stronger signal-on switching upon ATP binding; sequences stand for … in TCGTCGGCAGCGTCAGATGTGTATAAGAGACAGTTTTTTTTTTTTTTTTTTTTTTTTT…TC). Conditions: aptamer strand: ATP DNA aptamer (quencher-CACCTGGGGGAGTATTGCGGAGGAAGG + anchor), 100 nM annealed; ATP concentration: 500 uM; one replicate.
Method in brief: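 Clusters with intensities outside 100-1000 RFU were excluded. The remaining Cy3-labelled switching-strand clusters on a modified Illumina MiSeq flow-cell had been annealed to 100 nM quencher-labelled ATP aptamer and imaged in selection buffer, then after 15 min with 500 uM ATP at 22 °C, for five cycles separated by NaOH stripping and re-annealing. The fluorescence ratio, averaged per switch-domain sequence, is each cluster's summed target-cycle Cy3 intensity over its summed buffer-cycle Cy3 intensity.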
In the case of GAATTCCG, the switch fluorescence ratio is reported as 1.06. CTGTCGACTA showed a switch fluorescence ratio of 0.982. TTAAAGGAGT was tested, and the switch fluorescence ratio was 1. ACTTAAATT showed a switch fluorescence ratio of 0.998. In the case of CTAGAAGATA, the switch fluorescence ratio is reported as 1.03. Sequence GGTTCATTCC has a switch fluorescence ratio of 1.18. In the case of TAGAGCTCTC, the switch fluorescence ratio is reported as 0.973. For TCTTTGAAGG, the switch fluorescence ratio was 1.01. Work on ACGAGTCGGG yielded a switch fluorescence ratio of 1.07. AGACTCGAAA showed a switch fluorescence ratio of 1.05. With ATTGCGCCTA the switch fluorescence ratio was 0.94. For CGTATTTCA, the switch fluorescence ratio was 1. GGTTATTTCC gave a switch fluorescence ratio of 0.993. In the case of TACGATGTC, the switch fluorescence ratio is reported as 1.03. With CTAAAAGGGT the switch fluorescence ratio was 0.974. Work on ACGTCCAGGT yielded a switch fluorescence ratio of 1.7. With TGCGCGACAA the switch fluorescence ratio was 1.21. CAATCCGATC gave a switch fluorescence ratio of 1.21. Work on TAGTTCGGAA yielded a switch fluorescence ratio of 1.04. Sequence GGGGCCTTTT has a switch fluorescence ratio of 0.969. With CTCTTGGTCT the switch fluorescence ratio was 1.03. ATGTCATAA gave a switch fluorescence ratio of 0.996. Sequence TTCACACGAG has a switch fluorescence ratio of 1.02. Sequence TCTTTTGTAA has a switch fluorescence ratio of 1.01. GGCCAGGAGG showed a switch fluorescence ratio of 0.948. GAAGTGCACC showed a switch fluorescence ratio of 0.987. TTCCCTCACG showed a switch fluorescence ratio of 1.08. With CAAAGGCGGC the switch fluorescence ratio was 0.976. Sequence AGATGGGCCG has a switch fluorescence ratio of 1.04. TTAAAGCCCA was tested, and the switch fluorescence ratio was 0.996. GGTGCATTGC gave a switch fluorescence ratio of 1.06. With GAAGAGTAGG the switch fluorescence ratio was 0.983. GGTTAACGGG was tested, and the switch fluorescence ratio was 1.05. For ATGGTCGGCT, the switch fluorescence ratio was 1.03. TTTCCAGGTT gave a switch fluorescence ratio of 1.12. TCGTCGATGG showed a switch fluorescence ratio of 1.02. AATCTGGGCT gave a switch fluorescence ratio of 0.981. Sequence AACGTGACGC has a switch fluorescence ratio of 1.22. Sequence GGGAGGCCTC has a switch fluorescence ratio of 0.985. With AGCCACGGTC the switch fluorescence ratio was 1.18. TCCAATCAGA was tested, and the switch fluorescence ratio was 0.938. Sequence ACGTAATTCT has a switch fluorescence ratio of 1.24. Sequence GAAGTTTGGG has a switch fluorescence ratio of 1.01. Sequence GCACGCAGCT has a switch fluorescence ratio of 1.1. Sequence AATTCACGTA has a switch fluorescence ratio of 1.23. In the case of CAGGTCAAG, the switch fluorescence ratio is reported as 1.05. Sequence AAGCTCTCTA has a switch fluorescence ratio of 1.01. GTCGCGGGGC showed a switch fluorescence ratio of 1.03. With CGTTGCTGCT the switch fluorescence ratio was 0.941. ATGCGGCGCC gave a switch fluorescence ratio of 0.943. TGGAGGCATG gave a switch fluorescence ratio of 1.04. CATTTGCCTG gave a switch fluorescence ratio of 1.04. CTCCAAGGTA gave a switch fluorescence ratio of 1.56. Work on GGAATGAATA yielded a switch fluorescence ratio of 0.955. For TATAACTATG, the switch fluorescence ratio was 1.01. Work on CTGACATT yielded a switch fluorescence ratio of 1.03. GTCTGCTGAA gave a switch fluorescence ratio of 1.06. Work on AGCGTTATTG yielded a switch fluorescence ratio of 0.959. GACATGAAAG was tested, and the switch fluorescence ratio was 1.01. GATCGG was tested, and the switch fluorescence ratio was 1.07. CCGTATGGGG showed a switch fluorescence ratio of 0.989. With CCATATTCAG the switch fluorescence ratio was 0.963. For AATCATCTAC, the switch fluorescence ratio was 1.03. GGTTGCGCAT was tested, and the switch fluorescence ratio was 1.04. Sequence CGAGTCAACG has a switch fluorescence ratio of 1.05. Work on ACATACGGAG yielded a switch fluorescence ratio of 1.17. TGGATAAGCC showed a switch fluorescence ratio of 0.963. CAGGTCATCG was tested, and the switch fluorescence ratio was 1.02. For TGCAGATTC, the switch fluorescence ratio was 1.05. CCAGAGCCTG gave a switch fluorescence ratio of 1.15. In the case of GGGGGCTCTC, the switch fluorescence ratio is reported as 1.01. GGTGGGTTAT was tested, and the switch fluorescence ratio was 0.989. In the case of AACTTGCCCA, the switch fluorescence ratio is reported as 1.01. Work on TTGGCTTGTT yielded a switch fluorescence ratio of 0.999. For CAAGACGTGC, the switch fluorescence ratio was 1.1. With ATTTACTATT the switch fluorescence ratio was 0.975. CGAGTCGAGG showed a switch fluorescence ratio of 0.976. Work on AGTTGAGCAC yielded a switch fluorescence ratio of 1.04. Work on ATGCTTATAA yielded a switch fluorescence ratio of 1.02. AGCGATACAT was tested, and the switch fluorescence ratio was 1.98. ATAACGTAGT showed a switch fluorescence ratio of 0.968. CCGTAAGATG gave a switch fluorescence ratio of 1.09. In the case of TACTGGAACT, the switch fluorescence ratio is reported as 1. Sequence AGTGTAACGG has a switch fluorescence ratio of 1.04. ACTGGAAAGC showed a switch fluorescence ratio of 0.951. Work on AGGACGTGCG yielded a switch fluorescence ratio of 1.02. GCGACGATTG gave a switch fluorescence ratio of 1.05. In the case of GTAATACGGT, the switch fluorescence ratio is reported as 1.35. ATTTTACCGG gave a switch fluorescence ratio of 1.01. Sequence ACGAAGTGAC has a switch fluorescence ratio of 1.08. TTACACGAAC gave a switch fluorescence ratio of 1.45. Sequence GCCAGGATCG has a switch fluorescence ratio of 1. With TAGGGGTAT the switch fluorescence ratio was 1.01. TGTGAGTCGT was tested, and the switch fluorescence ratio was 0.948. TCCCTATTGG showed a switch fluorescence ratio of 0.993. For TTGTGTTAGA, the switch fluorescence ratio was 1.03. AATTAATCCC gave a switch fluorescence ratio of 1.02. For TGGTTATCGC, the switch fluorescence ratio was 1.02. Work on CGTCCCAATG yielded a switch fluorescence ratio of 4.42. With ATCTGGAAGT the switch fluorescence ratio was 0.99. AAGTAACGGC was tested, and the switch fluorescence ratio was 1.06. CCCATGCGAT was tested, and the switch fluorescence ratio was 2.52. In the case of GTCAGGGACG, the switch fluorescence ratio is reported as 0.969. TAGTGAGATC was tested, and the switch fluorescence ratio was 1.06. CTTCTAACAT was tested, and the switch fluorescence ratio was 1.02. In the case of TACTAGGCT, the switch fluorescence ratio is reported as 1.02. Work on TTACATACG yielded a switch fluorescence ratio of 1.42. For GTTCGGGCAG, the switch fluorescence ratio was 0.971. TCGCATAGAA gave a switch fluorescence ratio of 1.07. With CTTTCGATAA the switch fluorescence ratio was 1.03. With CGACGGATGT the switch fluorescence ratio was 1.05. Sequence TTAGAAGCT has a switch fluorescence ratio of 0.855. In the case of GTCGGGCACT, the switch fluorescence ratio is reported as 0.953. For CAGGGCATAT, the switch fluorescence ratio was 1.06. TTCAAACGGG gave a switch fluorescence ratio of 1.03. In the case of GCCTTCCTTC, the switch fluorescence ratio is reported as 2. CTGTGAGTGG was tested, and the switch fluorescence ratio was 0.971. Sequence GGTGGTGCCT has a switch fluorescence ratio of 1.01. AGGCGCGTCA showed a switch fluorescence ratio of 0.999. Work on CCTGTGCGGT yielded a switch fluorescence ratio of 1.01. With ACTACCTCG the switch fluorescence ratio was 1.13. For TCCAGCCCCA, the switch fluorescence ratio was 1.03. TCCTGGTTGG was tested, and the switch fluorescence ratio was 1.02. In the case of CAAGGGGTTC, the switch fluorescence ratio is reported as 0.948. TCGAAGTATT gave a switch fluorescence ratio of 1.04. With AAAGACCGCG the switch fluorescence ratio was 0.96. GCATCAGGTA showed a switch fluorescence ratio of 1. For ACGGAGCCGC, the switch fluorescence ratio was 1.31. AGTGTGGGAT gave a switch fluorescence ratio of 1.03. Work on TGGAGGGCAA yielded a switch fluorescence ratio of 1.03. With TAATTCCACA the switch fluorescence ratio was 1.04. GACGATGTGG gave a switch fluorescence ratio of 0.985. Work on TCAGACCAGA yielded a switch fluorescence ratio of 1.02. In the case of CTTGGAAAAG, the switch fluorescence ratio is reported as 0.995. Work on AGTGATCTTC yielded a switch fluorescence ratio of 1.02. CCCCTGAAAA was tested, and the switch fluorescence ratio was 1.08. Work on CGATCGACTG yielded a switch fluorescence ratio of 0.989. Sequence TGTGACTCGC has a switch fluorescence ratio of 1.04. AGGAGGGGAC was tested, and the switch fluorescence ratio was 1.12. TACCGATACT was tested, and the switch fluorescence ratio was 2.12. For ATTAAAAAGA, the switch fluorescence ratio was 0.987. With AAGGTGTTAA the switch fluorescence ratio was 1.01. Work on GATGAGTAAG yielded a switch fluorescence ratio of 0.938. In the case of AAGCTGATTA, the switch fluorescence ratio is reported as 1.01. For GGATGGGTCC, the switch fluorescence ratio was 1. In the case of TGGTGGAATG, the switch fluorescence ratio is reported as 0.991. In the case of ACGAGCCCAC, the switch fluorescence ratio is reported as 1.26. In the case of AATCCGTATG, the switch fluorescence ratio is reported as 1.03. In the case of AGGGTGTTCT, the switch fluorescence ratio is reported as 0.972. With CAACTCGTAA the switch fluorescence ratio was 1.05. Sequence GGTACAGGGT has a switch fluorescence ratio of 1.03. With TCTTGATATA the switch fluorescence ratio was 0.979. TTAGTTCTCA gave a switch fluorescence ratio of 0.992. Sequence CGATCTCATA has a switch fluorescence ratio of 0.98. In the case of TATGGAGCGA, the switch fluorescence ratio is reported as 1.56. GATGTCGAAA showed a switch fluorescence ratio of 0.99. ACGAATATGA showed a switch fluorescence ratio of 1.07. ATCAGAGTGA was tested, and the switch fluorescence ratio was 0.994. For GTGCAAGTAT, the switch fluorescence ratio was 1.01. GCGTCCCACA was tested, and the switch fluorescence ratio was 0.977. AACCCACGA showed a switch fluorescence ratio of 1.4. GGTCTTGAGT was tested, and the switch fluorescence ratio was 0.997. For ATAGTTTTGA, the switch fluorescence ratio was 1. In the case of CGCAGCCAGA, the switch fluorescence ratio is reported as 1.29. CCCCAATCGG was tested, and the switch fluorescence ratio was 1.18. TCCACGTGCC gave a switch fluorescence ratio of 1.03. ATTAATACGC showed a switch fluorescence ratio of 1.04. Sequence TAGTTGTCGT has a switch fluorescence ratio of 0.98. With TTCATGGTAG the switch fluorescence ratio was 0.954. With TAGTGTAGAA the switch fluorescence ratio was 1.04. Work on TTCAACCGCG yielded a switch fluorescence ratio of 1.32. Sequence TCCACATAGG has a switch fluorescence ratio of 1.07. Sequence TAGAGTAATT has a switch fluorescence ratio of 1.01. In the case of GACATATAGC, the switch fluorescence ratio is reported as 1.02. Sequence TACATGAAGT has a switch fluorescence ratio of 1.02. Work on CAGTGTCGTA yielded a switch fluorescence ratio of 0.981. GGTGTTAATG showed a switch fluorescence ratio of 0.999. With ATTAGTCGTG the switch fluorescence ratio was 0.984. With CTCGGCTACG the switch fluorescence ratio was 1.08. In the case of CTAATATAGC, the switch fluorescence ratio is reported as 1.02. Sequence TCTCACAGCA has a switch fluorescence ratio of 1.22. CAGCGCTTTT was tested, and the switch fluorescence ratio was 1.01. Work on TCAAAGCGCC yielded a switch fluorescence ratio of 1.05. In the case of CACATACGCA, the switch fluorescence ratio is reported as 1.22. GAGTATCGCA gave a switch fluorescence ratio of 1.05. GTTTTAATAC gave a switch fluorescence ratio of 1.04. TTAACCTGGG gave a switch fluorescence ratio of 1. For GCGCTGCGGG, the switch fluorescence ratio was 1.01. TAGTTTTATT showed a switch fluorescence ratio of 0.955. TCGGAAGCTC was tested, and the switch fluorescence ratio was 1.4. TAAGCCGCTT was tested, and the switch fluorescence ratio was 1.03. CTCAGAAGAG gave a switch fluorescence ratio of 1.04. Work on CGCGAGACTG yielded a switch fluorescence ratio of 2.67. CTGAATTAA showed a switch fluorescence ratio of 0.958. Sequence CTTTATCGCT has a switch fluorescence ratio of 0.986. For GCCTTACTAA, the switch fluorescence ratio was 1.18. AATTTTGGTC gave a switch fluorescence ratio of 1.07. For TTCGTTACG, the switch fluorescence ratio was 0.981. Sequence TAGGCTCAG has a switch fluorescence ratio of 1.02. In the case of CGGCTAATTG, the switch fluorescence ratio is reported as 1.04. CACATGTGTC showed a switch fluorescence ratio of 1.02.
